In PMC11211441, “Distributable, metabolic PET reporting of tuberculosis” (Nature Communications, 2024):

Test system: Mtb
Test: 14C-labeled [19F]FDT incorporation into Mtb lipids
Details: Mtb culture, 24 h

**Q.** O[14CH2][14CH]1O[14CH](O[14CH]2O[14CH]([14CH2]O)[14CH](O)[14CH](O)[14CH]2F)[14CH](O)[14CH](O)[14CH]1O (stereo not shown) [[U-^14C, ^19F]FDT] was tested. Which “incorporation into Mtb lipids (TLC)” value did it give?
**A.** Its value is “incorporation into less polar, lipidic species”.
